Experimental findings from the supplement of paper PMC9174493 are described below.

Some of the results follow. Single values of this set are uncertain. Values with irradiation are relative to irradiated vehicle.
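Also: viability correction based on the alamar blue assay, with concentrations leaving 10% survival or less dropped.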

The test system of this assay is A549-Dual. The experiment in a line: NF-kB reporter (SEAP) activity, viability-corrected, relative to vehicle (fold change vs vehicle); higher = more activation of STING-IRF / NF-kB immune response reporter. Conditions: 10 µM; irradiation: none.
As for `CC(C)(C)C(=O)Oc1ccc(S(=O)(=O)Nc2ccccc2C(=O)NCC(=O)[O-])cc1.O.O.O.O.[Na+]` [Sivelestat sodium tetrahydrate], the NF-kB reporter was 1.54. For the compound `COc1cccc(OC)c1C(=O)OCc1cc(O)ccc1OC1OC(CO)C(O)C(O)C1O` (stereo not given) [Curculigoside], the NF-kB reporter came out at 0.852. As for `CC(C)(C)NCC(O)COc1ccccc1C1CCCC1.CC(C)(C)NCC(O)COc1ccccc1C1CCCC1.O=S(=O)(O)O` (stereo not given) [Penbutolol Sulfate], the figure is 0.906. Turning to `Nc1cc[nH]c(=O)n1` [Cytosine], the NF-kB reporter worked out at 0.888. The same measure for `O=C(O)[C@@H]1C[C@@H](O)CN1` [L-Hydroxyproline]: 0.673; for `COc1ccc(CC(C)NCC(O)c2ccc(O)c(NC=O)c2)cc1.O=C(O)C(O)C(O)C(=O)O` (stereo not given) [Arformoterol Tartrate]: 0.714; for `COc1ccc(NC(=O)c2ccc(C(=N)N(C)C)cc2)c(C(=O)Nc2ccc(Cl)cn2)c1.O=C(O)/C=C\C(=O)O` [Betrixaban maleate]: 0.834. Consider `COc1ccc2[nH]cc(CCNC(C)=O)c2c1` [Melatonin], for which the NF-kB reporter is 1.01. The same measure for `COC(=O)Nc1nc2ccc(Sc3ccccc3)cc2[nH]1` [Fenbendazole]: 1.98. As for `CSc1ccc2c(c1)N(CCC1CCCCN1C)c1ccccc1S2.Cl` (stereo not given) [Thioridazine hydrochloride], the figure is 1.38; as for `O=C(c1ccc(F)cc1)C1CCN(CCn2c(=O)[nH]c3ccccc3c2=O)CC1` [Ketanserin], 0.876. For `Cc1c(-c2ccccc2)oc2c(C(=O)OCCN3CCCCC3)cccc2c1=O.Cl` [Flavoxate HCl], the NF-kB reporter worked out at 1.7. The same measure for `Nc1nc(=O)n(C2CSC(CO)O2)cc1F` (stereo not given) [Emtricitabine]: 0.782. The same measure for `COCC1CC(c2ncc(-c3ccc4c(c3)COc3cc5c(ccc6[nH]c(C7CCC(C)N7C(=O)C(NC(=O)OC)C(C)C)nc65)cc3-4)[nH]2)N(C(=O)C(NC(=O)OC)c2ccccc2)C1` (stereo not given) [Velpatasvir]: 0.982. As for `NC(Cc1cc(I)c(Oc2ccc(O)c(I)c2)c(I)c1)C(=O)O` (stereo not given) [Triiodothyronine], the figure is 0.457; as for `Cl.NCCCC[C@H](N)C(=O)O` [L-Lysine hydrochloride], 0.778; as for `COC(=O)C1=C(C)NC(C)=C(C(=O)OCC(C)C)C1c1ccccc1[N+](=O)[O-]` (stereo not given) [Nisoldipine], 0.788. With `CC(C)(C)NC(=O)NC(C(=O)N1CC2C(C1C(=O)NC(CC1CCC1)C(=O)C(N)=O)C2(C)C)C(C)(C)C` (stereo not given) [Boceprevir], the NF-kB reporter was determined as 0.958. As for `O=c1n(CCCN2CCN(c3cccc(Cl)c3)CC2)nc2ccccn12` [Trazodone], the figure is 0.894; as for `CNC1C(O)C(OC2C(N)CC(N)C(OC3OC(CN)=CCC3N)C2O)OCC1(C)O.CNC1C(O)C(OC2C(N)CC(N)C(OC3OC(CN)=CCC3N)C2O)OCC1(C)O.O=S(=O)(O)O.O=S(=O)(O)O.O=S(=O)(O)O.O=S(=O)(O)O.O=S(=O)(O)O` (stereo not given) [Sisomicin sulfate], 0.843; as for `Clc1ccc(C(Cn2ccnc2)OCc2ccsc2Cl)c(Cl)c1` (stereo not given) [Tioconazole], 0.55. As for `COc1ccc(-c2coc3cc(O)ccc3c2=O)cc1` [Formononetin], the figure is 0.524. Consider `Cl.N=C(N)N` [Guanidine HCl], for which the NF-kB reporter came out at 0.801. The same measure for `N#C/C(=C1/SCC(c2ccc(Cl)cc2Cl)S1)n1ccnc1` (stereo not given) [Luliconazole]: 0.903. The same measure for `CC1CCOC2Cn3cc(C(=O)NCc4ccc(F)cc4F)c(=O)c([O][Na])c3C(=O)N12` (stereo not given) [Dolutegravir Sodium]: 0.809. As for `CCN(CC)C(=O)C1(c2ccccc2)CC1CN.Cl` (stereo not given) [Levomilnacipran Hydrochloride], the figure is 1.36; as for `CC/C=C\C/C=C\C/C=C\CCCCCCCC(=O)OC` [Methyl linolenate], 0.751; as for `CC1(OC(=O)/C=C/c2ccccc2)CC(O)C2(O)C=COC(OC3OC(CO)C(O)C(O)C3O)C12` (stereo not given) [Harpagoside], 0.819. On to `CCCCCN(C)CCC(O)(P(=O)(O)O)P(=O)(O)O.O.[NaH]` [Ibandronate sodium], for which the NF-kB reporter came to 0.947. The same measure for `CC(C)=CCCC(C)(OC1OC(COC2OC(CO)C(O)C(O)C2O)C(O)C(O)C1O)C1CCC2(C)C1C(O)CC1C3(C)CCC(OC4OC(CO)C(O)C(O)C4OC4OC(CO)C(O)C(O)C4O)C(C)(C)C3CCC12C` (stereo not given) [Ginsenoside Rb1]: 0.588. Consider `Nc1ncnc2c1ncn2C1OC(CO)C(O)C1O` (stereo not given) [Adenosine], for which the NF-kB reporter was found to be 0.998.

Consider `CN(C)CCC=C1c2ccccc2C(C)(C)c2ccccc21.Cl` [Melitracen hydrochloride], for which the NF-kB reporter is 0.439.

`c1cnc(N2CCN(Cc3ccc4c(c3)OCO4)CC2)nc1` [Piribedil] displayed an NF-kB reporter of 0.857. As for `CN(CCOc1ccc(NS(C)(=O)=O)cc1)CCc1ccc(NS(C)(=O)=O)cc1` [Dofetilide], the figure is 1.15; as for `CCC1OC(=O)C(C)C(OC2CC(C)(OC)C(O)C(C)O2)C(C)C(OC2OC(C)CC(N(C)C)C2O)C(C)(O)CC(C)/C(=N/OCOCCOC)C(C)C(O)C1(C)O` (stereo not given) [Roxithromycin], 0.994. Compound `C#CC1(O)CCC2C3CCC4=CC(=O)CCC4C3CCC21C` (stereo not given) [Norethindrone] yielded an NF-kB reporter of 1.1.

`CCCCCCCCOC(=O)c1cc(O)c(O)c(O)c1` [Octyl gallate]: the NF-kB reporter stood at 0.956. Consider `COc1ccc(-c2cc(=O)c3c(O)cc(O)cc3o2)cc1O` [Diosmetin], for which the NF-kB reporter came out at 1.18. As for `CCC(C)C(N)C1=NCC(C(=O)NC(CC(C)C)C(=O)NC(CCC(=O)[O-])C(=O)NC(C(=O)NC2CCCCNC(=O)C(CC(N)=O)NC(=O)C(CC(=O)[O-])NC(=O)C(Cc3c[nH]cn3)NC(=O)C(Cc3ccccc3)NC(=O)C(C(C)CC)NC(=O)C(CCCN)NC2=O)C(C)CC)S1.[Zn+2]` (stereo not given) [Bacitracin Zinc], the figure is 0.99. `COc1ccc(NS(=O)(=O)c2ccc(N)cc2)nn1` [Sulfamethoxypyridazine]: the NF-kB reporter came to 0.965.
